We go through 54 sequences from article PMC7819943, “Rice protein-binding microarrays: a tool to detect cis-acting elements near promoter regions in rice”.

Some of the results follow.

For the test, the target named is T1, OsWOX13 (Oryza sativa, UniProt Q5QMM3 1-267).
T1 sequence: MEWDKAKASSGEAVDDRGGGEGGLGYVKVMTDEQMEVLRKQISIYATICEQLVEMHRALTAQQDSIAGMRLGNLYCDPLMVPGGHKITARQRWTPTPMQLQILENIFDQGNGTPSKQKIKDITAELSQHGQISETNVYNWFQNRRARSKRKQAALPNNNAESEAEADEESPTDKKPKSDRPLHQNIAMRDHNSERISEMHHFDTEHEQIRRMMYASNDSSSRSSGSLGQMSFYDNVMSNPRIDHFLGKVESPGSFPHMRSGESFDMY
Kind of test: protein-binding microarray (RPBM); PBS, 2% BSA, 51.3 ng/ul salmon testes DNA, 50 uM zinc acetate, 200 nM TF, 25 C, 1 h; high values mean tight binding. The conditions noted are these: protein: recombinant; tags: N-terminal polyhistidine and DsRed monomer fusion (pET32a); label: CyDye5-dUTP incorporated in the synthesized complementary strand; 3' TTTTT single-stranded linker to array surface; dsDNA, one strand shown. The method, boiled down: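 Ni–NTA purification followed expression in E. coli BL21-CodonPlus of transcription factors fused N-terminally to a polyhistidine tag and DsRed. At 200 nM in PBS with 2% BSA, salmon testes DNA and 50 µM zinc acetate, the protein was incubated for 1 h at 25 °C with a custom Agilent array that had been primer-extended with Cy5-dUTP and blocked with 2% BSA. After washing, the array was read on an Axon 4000B scanner. The binding signal is per-feature fluorescence intensity in arbitrary units.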
In the case of “TCATTTAATTGCTATGACAAATAACCACATCTATTTAAAACGGAGTCACCTAGTGCAG”, the binding signal is 10600 fluorescence intensity (a.u.).

As for “CGCCTATAAATTGATGAAGACACTCGCATGCAAGCTCATTCGGAGTCACCTAGTGCAG”, the binding signal was 23300 fluorescence intensity (a.u.). In the case of “ATTGACAATATTAATAAATTAATTATGTAAAATTTTAATTCGGAGTCACCTAGTGCAG”, the binding signal was 13600 fluorescence intensity (a.u.).

As to “TCTCCTACCCTAGCTTGCGTTGATTGGAAGGGACGGAGAGCGGAGTCACCTAGTGCAG”, the binding signal is 6470 fluorescence intensity (a.u.). Next, “CATGGATTGATAGAGTGGAGAGAGAGTAGGGGTAGGTAATCGGAGTCACCTAGTGCAG”: 36600 fluorescence intensity (a.u.); “TTCAAAATAATTACCTTTTATCGATAAACATGACTTGTAACGGAGTCACCTAGTGCAG”: 5690 fluorescence intensity (a.u.); “TGATTAATAATTTATTAATAGATCTGGTTGGTTCCTTTGGCGGAGTCACCTAGTGCAG”: 35900 fluorescence intensity (a.u.). Next, “ACTTACAAATTTTGTACTCAATTGAGATGTGCTTCGATTGCGGAGTCACCTAGTGCAG”: 5640 fluorescence intensity (a.u.).

For the sequence “AATATTCATTTCAAACTAATTTGGAATTGCTCTCGCTCACCGGAGTCACCTAGTGCAG”, the binding signal was 4360 fluorescence intensity (a.u.). “ACTAATTTATAATATTAAATATATACTACTTACAAAACTACGGAGTCACCTAGTGCAG”: the binding signal is 13800 fluorescence intensity (a.u.).

Turning to “ATTTTAATTGTTTAGAAATCTAGGTGACATAACTCTACGACGGAGTCACCTAGTGCAG”, the binding signal was 13300 fluorescence intensity (a.u.). Consider “AAAACCAATCAACAAAATACATACAACCTCATGTTCATGTCGGAGTCACCTAGTGCAG”, for which the binding signal is 8060 fluorescence intensity (a.u.). Turning to “TTAAATTATATTTATATCAAATTATACTTTGATCAATACTCGGAGTCACCTAGTGCAG”, the binding signal is 39900 fluorescence intensity (a.u.). The figure for “TTTGATTTGATCTTTTAGTTTTGGATGTTGGTATGCTGTGCGGAGTCACCTAGTGCAG” is 44400 fluorescence intensity (a.u.); for “TTGTTAACTGCTGATGTGTGACCTGACTGTTAAAAGCTGCCGGAGTCACCTAGTGCAG” it is 19400 fluorescence intensity (a.u.); for “ACAACAAATCATCTTTTCGAGGATTTTGCGAAGAATCGATCGGAGTCACCTAGTGCAG” it is 3340 fluorescence intensity (a.u.). The figure for “TCTAATTGATAGCTAGCAGTAATGAATTATTTTAATATAGCGGAGTCACCTAGTGCAG” is 50200 fluorescence intensity (a.u.).

For “CCATCGCATCTGAAGTATAATTGACGCCATAGGTAGCAAACGGAGTCACCTAGTGCAG”, the binding signal was 3310 fluorescence intensity (a.u.). The figure for “AATCGGTGAATGTATTGATTGGATTTGCGTGTTCATTGTTCGGAGTCACCTAGTGCAG” is 29200 fluorescence intensity (a.u.). Next, “ACTGATTGTCACATTTGGGATTGCTTTAACCTGCAACATTCGGAGTCACCTAGTGCAG”: 39800 fluorescence intensity (a.u.); “CTTTATCCAAAACAATAATTGTTATCAAACTGGAGGAGTACGGAGTCACCTAGTGCAG”: 4040 fluorescence intensity (a.u.); “CTAATAATAAAACAAATTACATATTCCGCGTATAAACTGCCGGAGTCACCTAGTGCAG”: 8010 fluorescence intensity (a.u.). In the case of “AAGCAAGACCCCATCAATCAATCATCGGATACCACCTCTCCGGAGTCACCTAGTGCAG”, the binding signal was 17800 fluorescence intensity (a.u.). Next, “CGCTGGTACCAACCCATCACTGATTGAGAGAAGGGAGAACCGGAGTCACCTAGTGCAG”: 12800 fluorescence intensity (a.u.); “CATTAATTTCATAGCTTGATTGATAGATTCTTAGTATTTTCGGAGTCACCTAGTGCAG”: 34300 fluorescence intensity (a.u.). Next, “ATTTATTAATTATTAAAATTTGTTTATGTACCATATAAATCGGAGTCACCTAGTGCAG”: 11800 fluorescence intensity (a.u.).

For “AAACTTAAACTGCAATTTACTTTTCTGAGGCGGCTGTGGGCGGAGTCACCTAGTGCAG”, the binding signal was 13000 fluorescence intensity (a.u.). As to “CTTTTGATCATTTCCCACTCGTTTATTGTATTTGGAGTAACGGAGTCACCTAGTGCAG”, the binding signal is 3480 fluorescence intensity (a.u.). The figure for “CTCATGATTGCAGCTTGAATTGCAACTTTTCTAGCCCATACGGAGTCACCTAGTGCAG” is 22800 fluorescence intensity (a.u.); for “CTAATTAATCGAAGTGATCGCGTAAAGTGGCCGACAGGATCGGAGTCACCTAGTGCAG” it is 14200 fluorescence intensity (a.u.).

For “CATTAGATTTCGACTAACAATTTAATTCAGCACACAGAGTCGGAGTCACCTAGTGCAG”, the binding signal was 4310 fluorescence intensity (a.u.). Next, “AGCCTAATTAGTCTATGATTAGCCATAAGTGCTACAGTAACGGAGTCACCTAGTGCAG”: 37500 fluorescence intensity (a.u.); “AGATAACATCTTTAATTAATTTGTTGTTAATTAACAATATCGGAGTCACCTAGTGCAG”: 36900 fluorescence intensity (a.u.). The figure for “ATATGATAGGATATGACATAATCTACTATACAAATCTAGACGGAGTCACCTAGTGCAG” is 7470 fluorescence intensity (a.u.); for “TGAGATTGCGAGATGATAGATGCAGTAGTGCTGACGTTCTCGGAGTCACCTAGTGCAG” it is 22900 fluorescence intensity (a.u.). Next, “ATGACAGTATGACAGCTCGTCAATCAATGGTAATCACAGCCGGAGTCACCTAGTGCAG”: 25400 fluorescence intensity (a.u.); “TTTACTCATGATTACGCTAATTATTCCACTCAATTCTCACCGGAGTCACCTAGTGCAG”: 26100 fluorescence intensity (a.u.). Turning to “ACCATTAATAGATTGAGAGCGAATGAATTGGTGCCACGTGCGGAGTCACCTAGTGCAG”, the binding signal was 55000 fluorescence intensity (a.u.). The figure for “CGTCTGTTAGATACTTTGATTAAGTTAGCACCTGTTCTACCGGAGTCACCTAGTGCAG” is 4080 fluorescence intensity (a.u.); for “AAATTAAGTAATCATTAATTCTTTTCTTATCATTTGATTCCGGAGTCACCTAGTGCAG” it is 4980 fluorescence intensity (a.u.).

As to “CTATAAACATGATTTAAATTTGATAACTAAGAACACACTTCGGAGTCACCTAGTGCAG”, the binding signal was 19200 fluorescence intensity (a.u.). The figure for “CTAAATATAATTGCTACTATGATATCGATAGATACGTTATCGGAGTCACCTAGTGCAG” is 15700 fluorescence intensity (a.u.); for “TCTAATTAGCAAACGCATACACTTTTCCCTTTGCAAATTGCGGAGTCACCTAGTGCAG” it is 35400 fluorescence intensity (a.u.). Next, “GTTGAAGGATCTGGATGATTAGACGAGCGATGGATCAGGTCGGAGTCACCTAGTGCAG”: 3720 fluorescence intensity (a.u.); “TGTGTGACAGCAGACAGCTAATTATCAGTACACGTATATGCGGAGTCACCTAGTGCAG”: 15400 fluorescence intensity (a.u.). The figure for “ACAACAATCATCAGTATAAATAATTCAGTACAACTGAAATCGGAGTCACCTAGTGCAG” is 7340 fluorescence intensity (a.u.); for “GAAATAATTGATTGAATCCTATTCTATCCTCTAAAATTCCCGGAGTCACCTAGTGCAG” it is 30900 fluorescence intensity (a.u.); for “ATCACATGACTGACGATACTGCGAAAATGACACAAAACAACGGAGTCACCTAGTGCAG” it is 3260 fluorescence intensity (a.u.). With “AGATGGGTGATGACGTGGACAGATTGACGTGTGGGGCCCACGGAGTCACCTAGTGCAG”, the binding signal was 10700 fluorescence intensity (a.u.). The figure for “ATACAATCAATTCTTGACTGAGAATAGCAGTAGAACTTTTCGGAGTCACCTAGTGCAG” is 20300 fluorescence intensity (a.u.); for “TGATGATTTTGTATATTTATGTTCTTCCATCCATACCTTACGGAGTCACCTAGTGCAG” it is 6980 fluorescence intensity (a.u.). Next, “CATCGATTAATAATCTGGTTTGTTAATTCCCCTGGACTTACGGAGTCACCTAGTGCAG”: 4760 fluorescence intensity (a.u.). The figure for “TTGAAATTGTCAACACTACATTCTGAAATCGTCGTACACCCGGAGTCACCTAGTGCAG” is 3540 fluorescence intensity (a.u.); for “ATAATTATTATTTATTTTCTTGTGACTTAGTTTATCACTACGGAGTCACCTAGTGCAG” it is 10800 fluorescence intensity (a.u.).
